Part of at least one peptide drawing is inferred or uncertain, most often the ends. Bridge positions count the residues as written; N and C are the ends. Peptide text beside a SMILES is read from it.
Legend:
[1] = test system: crickets (Acheta domesticus, 45 to 55 mg); assay: Insecticidal activity by injection into the thorax of crickets (paralysis and death counts); assay type: in vivo; settings: for Number of individuals with paralysis / Number of dead individuals: 200 µg/g body weight injected into thorax, n=10; for Number of individuals with paralysis: counted after 1 hour; for Number of dead individuals: counted after 48 hours
[2] = test system: crickets; assay: Median lethal dose (LD50) of insecticidal activity on crickets; assay type: in vivo, Acheta domesticus; settings: injection into thorax (Example 6, Table 9 and text)

Compound	Number of individuals with paralysis [1]	Number of dead individuals [1]	LD50 [2] [µg/g body weight]	convulsive symptoms (thorax contracted), time after administration ([1]; injection into thorax) [min]
CC[C@H](C)[C@@H]1NC(=O)[C@H](CCCNC(=N)N)NC(=O)[C@@H](NC(=O)CNC(=O)[C@H](C)NC(=O)[C@H](CCCNC(=N)N)NC(=O)[C@H](CCC(=O)O)NC(=O)[C@H](C)N)CSSC[C@@H](C(N)=O)NC(=O)[C@H](CC(C)C)NC(=O)[C@H](CCCCN)NC(=O)[C@H](CCCNC(=N)N)NC(=O)[C@@H]2CSSC[C@H](NC(=O)[C@H](CCCNC(=N)N)NC1=O)C(=O)N[C@@H](CC(C)C)C(=O)N[C@@H](CCC(N)=O)C(=O)N[C@@H](Cc1ccccc1)C(=O)N[C@@H]([C@@H](C)O)C(=O)N[C@@H](CC(=O)O)C(=O)N[C@@H](CC(=O)O)C(=O)N[C@@H](Cc1ccccc1)C(=O)N[C@@H](CCC(=O)O)C(=O)N[C@@H](CCCCN)C(=O)N2 [La-κKTx4] (H-AERAGCRIRCLQFTDDFEKCRKLC-NH2; disulfide 6-24, 10-20)	1 / 10 (crickets)	0 / 10 (crickets)	–	–
CC[C@H](C)[C@@H]1NC(=O)[C@@H]2CSSC[C@H](NC(=O)[C@H](C(C)C)NC(=O)[C@H]([C@@H](C)CC)NC(=O)[C@H](CCCNC(=N)N)NC(=O)[C@@H](NC(=O)[C@@H]3CCCN3C(=O)[C@H](CCCCN)NC(=O)[C@H](CCC(N)=O)NC(=O)[C@@H](NC(=O)[C@@H](N)CC(C)C)C(C)C)CSSC[C@@H](C(=O)N[C@H](C(=O)N[C@@H](CC(C)C)C(N)=O)[C@@H](C)O)NC(=O)[C@H](CCCNC(=N)N)NC(=O)[C@H](CCCNC(=N)N)NC1=O)C(=O)N[C@@H](CO)C(=O)N[C@@H](CCC(=O)O)C(=O)N[C@@H](CC(N)=O)C(=O)N[C@@H](CCSC)C(=O)N[C@@H](CCCNC(=N)N)C(=O)N[C@@H](CCCCN)C(=O)N2 [La-κKTx3] (H-LVQKPCRIVCSENMRKCIRRCTL-NH2; disulfide 6-21, 10-17)	0 / 10 (crickets)	0 / 10 (crickets)	–	–
CC(C)C[C@@H]1NC(=O)[C@@H]2CSSC[C@H](NC(=O)[C@H](CCC(=O)O)NC(=O)[C@H](C)NC(=O)[C@H](C(C)C)NC(=O)[C@H](CC(N)=O)NC(=O)CNC(=O)[C@H](CCC(=O)O)NC(=O)[C@H](Cc3c[nH]cn3)NC(=O)[C@H](Cc3c[nH]cn3)NC1=O)C(=O)N[C@@H](CCC(=O)O)C(=O)N[C@@H](C)C(=O)N[C@@H](C)C(=O)N[C@H](C(=O)N[C@@H](CCCCN)C(=O)N[C@@H](CCCCN)C(=O)N[C@@H](CO)C(=O)O)CSSC[C@H](NC(=O)[C@H](C)NC(=O)[C@H](CO)NC(=O)[C@@H](N)CC(=O)O)C(=O)N[C@@H](C(C)C)C(=O)N[C@@H](CCC(=O)O)C(=O)N[C@@H](C(C)C)C(=O)N2 [La-κKTx2(E20A)] (H-DSACVEVCLHHEGNVAECEAACKKS-OH; disulfide 4-22, 8-18)	–	–	9.6	–
CSCC[C@@H]1NC(=O)[C@@H]2CSSC[C@H](NC(=O)[C@H](C(C)C)NC(=O)[C@H](CCCNC(=N)N)NC(=O)[C@H](CCCCN)NC(=O)[C@@H](NC(=O)[C@@H](N)CO)CSSC[C@@H](C(=O)N[C@@H](CCCCN)C(=O)N[C@@H](CO)C(=O)N[C@@H](CCC(N)=O)C(=O)N3CCC[C@H]3C(N)=O)NC(=O)[C@H](CCCCN)NC(=O)[C@H](CCC(N)=O)NC1=O)C(=O)N[C@@H](CO)C(=O)NCC(=O)N[C@@H]([C@@H](C)O)C(=O)N[C@@H](CCCNC(=N)N)C(=O)N[C@@H](CCCNC(=N)N)C(=O)N[C@@H]([C@@H](C)O)C(=O)N[C@@H](CCCCN)C(=O)N[C@@H](CCCCN)C(=O)N2 [La-κKTx5] (H-SCKRVCSGTRRTKKCMQKCKSQP-NH2; disulfide 2-19, 6-15)	3 / 10 (crickets)	1 / 10 (crickets)	–	≤ 30
CC(C)C[C@@H]1NC(=O)[C@@H]2CSSC[C@H](NC(=O)[C@H](CCC(=O)O)NC(=O)[C@H](C)NC(=O)[C@H](C(C)C)NC(=O)[C@H](CC(N)=O)NC(=O)CNC(=O)[C@H](CCC(=O)O)NC(=O)[C@H](Cc3c[nH]cn3)NC(=O)[C@H](Cc3c[nH]cn3)NC1=O)C(=O)N[C@@H](CCC(=O)O)C(=O)N[C@@H](CCC(=O)O)C(=O)N[C@@H](C)C(=O)N[C@H](C(=O)N[C@@H](C)C(=O)N[C@@H](CCCCN)C(=O)N[C@@H](CO)C(=O)O)CSSC[C@H](NC(=O)[C@H](C)NC(=O)[C@H](CO)NC(=O)[C@@H](N)CC(=O)O)C(=O)N[C@@H](C(C)C)C(=O)N[C@@H](CCC(=O)O)C(=O)N[C@@H](C(C)C)C(=O)N2 [La-κKTx2(K23A)] (H-DSACVEVCLHHEGNVAECEEACAKS-OH; disulfide 4-22, 8-18)	–	–	13	–
CC(C)C[C@@H]1NC(=O)[C@@H]2CSSC[C@H](NC(=O)[C@H](CCC(=O)O)NC(=O)[C@H](C)NC(=O)[C@H](C(C)C)NC(=O)[C@H](CC(N)=O)NC(=O)CNC(=O)[C@H](CCC(=O)O)NC(=O)[C@H](Cc3c[nH]cn3)NC(=O)[C@H](Cc3c[nH]cn3)NC1=O)C(=O)N[C@@H](CCC(=O)O)C(=O)N[C@@H](CCC(=O)O)C(=O)N[C@@H](C)C(=O)N[C@H](C(=O)N[C@@H](CCCCN)C(=O)N[C@@H](CCCCN)C(=O)N[C@@H](CO)C(=O)O)CSSC[C@H](NC(=O)[C@H](C)NC(=O)[C@H](CO)NC(=O)[C@H](C)N)C(=O)N[C@@H](C(C)C)C(=O)N[C@@H](CCC(=O)O)C(=O)N[C@@H](C(C)C)C(=O)N2 [La-κKTx2(D1A)] (H-ASACVEVCLHHEGNVAECEEACKKS-OH; disulfide 4-22, 8-18)	–	–	37	–
CC(C)C[C@@H]1NC(=O)[C@@H]2CSSC[C@H](NC(=O)[C@H](C)NC(=O)[C@H](C)NC(=O)[C@H](C(C)C)NC(=O)[C@H](CC(N)=O)NC(=O)CNC(=O)[C@H](CCC(=O)O)NC(=O)[C@H](Cc3c[nH]cn3)NC(=O)[C@H](Cc3c[nH]cn3)NC1=O)C(=O)N[C@@H](CCC(=O)O)C(=O)N[C@@H](CCC(=O)O)C(=O)N[C@@H](C)C(=O)N[C@H](C(=O)N[C@@H](CCCCN)C(=O)N[C@@H](CCCCN)C(=O)N[C@@H](CO)C(=O)O)CSSC[C@H](NC(=O)[C@H](C)NC(=O)[C@H](CO)NC(=O)[C@@H](N)CC(=O)O)C(=O)N[C@@H](C(C)C)C(=O)N[C@@H](CCC(=O)O)C(=O)N[C@@H](C(C)C)C(=O)N2 [La-κKTx2(E17A)] (H-DSACVEVCLHHEGNVAACEEACKKS-OH; disulfide 4-22, 8-18)	–	–	11	–
CC(C)C[C@@H]1NC(=O)[C@@H]2CSSC[C@H](NC(=O)[C@H](CCC(=O)O)NC(=O)[C@H](C)NC(=O)[C@H](C(C)C)NC(=O)[C@H](CC(N)=O)NC(=O)CNC(=O)[C@H](CCC(=O)O)NC(=O)[C@H](Cc3c[nH]cn3)NC(=O)[C@H](Cc3c[nH]cn3)NC1=O)C(=O)N[C@@H](C)C(=O)N[C@@H](CCC(=O)O)C(=O)N[C@@H](C)C(=O)N[C@H](C(=O)N[C@@H](CCCCN)C(=O)N[C@@H](CCCCN)C(=O)N[C@@H](CO)C(=O)O)CSSC[C@H](NC(=O)[C@H](C)NC(=O)[C@H](CO)NC(=O)[C@@H](N)CC(=O)O)C(=O)N[C@@H](C(C)C)C(=O)N[C@@H](CCC(=O)O)C(=O)N[C@@H](C(C)C)C(=O)N2 [La-κKTx2(E19A)] (H-DSACVEVCLHHEGNVAECAEACKKS-OH; disulfide 4-22, 8-18)	–	–	14	–
